In the supplement of paper PMC11417369:
This is one part of the list.

These sequences were tested on PfSIP2 AP2 domain 1 (GST-tagged) (assay: gcPBM binding intensity (ln(normalized median fluorescence intensity)); higher = stronger DNA binding).
Method in brief: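 Alexa488 anti-GST antibody, scanned at 488 nm, detected GST-tagged P. falciparum DNA-binding domains that had been expressed in E. coli and incubated for 1 h on an Agilent 4 × 180k array. The array carried primer-extended double-stranded 36-bp intergenic genomic probes and negative controls. Binding intensity is the highest Masliner-normalised natural-log median intensity across replicate spots of either orientation of each probe.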

Sequence	gcPBM binding intensity (ln)
ATATATATATTTATATGTACGAAATATAAAAAAAAA [XGTACX_site5054]	8.15
CTTTTTTTTTTTTTTACACACCCAAATCACATACAT [CACACA_site4051]	7.47
ACATATAAATATATTACACACACACTAAAAAAATAA [CACACA_site6209]	7.09
CACCTTATAAATACTGCACACATAAAATATATATTA [CACACA_site8908]	7.61
CTTATCAAAAAAAAAGCATGCCACAGGCAAAAGGTA [TGCATGCA_site574]	6.79
ATATATATATATATATGTACATATATACATATACAT [XGTACX_site2350]	9.39
ATATAAAAATGTGTATGTACACACTTTATTTTTAAT [XGTACX_site5272]	7.02
ATCCTTTATTTTTTTTGTACATAAAAATAACTCGAG [XGTACX_site3885]	7.27
TTTTTCTATAAAAAATGTACATATTTTATGAAGGAA [XGTACX_site821]	7.32
AAATTACAAATACAAACACACAAATGTTTTTCATTC [CACACA_site3552]	6.76
TTAAAAAACCTTAGATGTACAGTTATATATAAAATA [XGTACX_site6688]	7.01
TGGAATAATACGCGTACACACATATATATATTAATA [CACACA_site131]	7.29
TGAACACACGAGCACACACACACATCTATATTTATA [CACACA_site6607]	7.22
AGGTATCAAAAATATGCATGCAATATTTTATGTAAT [TGCATGCA_site1055]	6.98
TTAACATACACTCTAGTGCATATATATAACAAAATA [GTGCAC_site9724]	8.23
ATTAAAACACAATATTCACACATGTATATTATATAT [CACACA_site5191]	6.95
AATTTAAATCTTCAAAGTACTAAAAAAAAAAATAAT [XGTACX_site8566]	7.03
ATCATATTTATATTGGTGCATTATGCATGAAATTTA [GTGCAC_site9571]	9.94
AAACGATTAATGTGTACACACATAGTTATAAACATA [CACACA_site7073]	7.05
TTACACATGTATTTGGTGCATGTTGTTAACAAAATA	9.57
TATGCTTTGATGAAGACACACATATAGAAGCGTATT [CACACA_site1925]	6.91
CGCCCACAGATATATACACACATATATAAATAAATA [CACACA_site6877]	7.43
AAAACTATTTCTTTCAGTACATATTTGGACTTATAT [XGTACX_site4977]	6.95

Sequence	gcPBM binding intensity (ln)
TACTTTTATAAAAATTGTACAAAAAAAAAAAAAAAA [XGTACX_site2266]	7.12
TATGTTATAAAATATATATTATAATATGTATATATA [XGTACX_negctrl_site233]	6.98
ATAATAAGCAGACACACACACACAAAAAAAAAAAAA [CACACA_site6477]	7.05
ATATAAATTTAATACACACCCAAAAAAAAAAAAAAA [CACACA_site3750]	6.89
TAAATAAATACATACACACACATACAGATATATATA [CACACA_site5690]	7.02
TATTTTAACATGTTTTCAAAAATAAAACATATAAAT [CACACA_negctrl_site1598]	6.71
TAATATGACATAAGGGGTACTATATATATATATATT [XGTACX_site386]	7.46
AAACATTTACTATATTGTACTTAAGATCTTATCGTA [XGTACX_site3919]	6.99
GAACTTTACAACCCAACACACAAAAAAGAAAAGAAA [CACACA_site1717]	7.21
ATTGGTGTATGTTTATGTACTTATCACAATTATGAA [XGTACX_site7055]	6.97
AATAGGAAAAGAAAAGCACACACATAAATAAATATA [CACACA_site8062]	6.91
ATATGTTCATTTAAAAGTACTTAATATAACATTTTT [XGTACX_site3332]	7.08
TCAAATTACTAAAATACACACATATTATAGATATAT [CACACA_site7233]	6.83
TGTATATATAATAAAACACACATTTTTAATGTGCTC [CACACA_site1437]	6.66
GTTTTATAAAAAGGCGCACACATATACATAAATATA [CACACA_site1864]	7.55
TAAATACAAAAATGCACACGAAAAGTAATATATATA [CACACA_site6151]	8.26
GATAAAGTACTTTATACACACAAATATTTATATATA [CACACA_site3974]	7.17
AAAAAGAAAATATATACACACCAAAAAAAAAAAAAA [CACACA_site5698]	6.73
TATTTGTGTATTTTTACACACATTAATATATTTATA [CACACA_site7562]	6.79
TGTACAAATTATACTTCGAACGAAGGGCATACATAT [XGTACX_negctrl_site37]	7.06
TATATATATATTATATGTACACATTTGTGAATTATT [XGTACX_site5848]	8.07
TATAGATAACAAAAGTGTACATGTTGTATACACATG [XGTACX_site3471]	7.01
AACAACTATTACTGCACACATTCTTACACTATATAA [CACACA_site654]	7.74

Sequence	gcPBM binding intensity (ln)
TATATATATAAACACACACACACACCCAAGCGTAGC [CACACA_site4210]	7.94
TATTCCTATATAAAGACACACATATGTAACTACGAT [CACACA_site4139]	6.98
TGTGTTATATATAAAGAAAAAAAAAAAAAATATATA [CACACA_negctrl_site567]	6.76
AAAAATTTAATTATTTGTACATAAAATACATTTCTG [XGTACX_site791]	6.81
AATACATCATTAAAATGTACATATATATATACATTA [XGTACX_site132]	6.96
ATTATAATAATGTGATGTACATTAATTGTCTTCCTA [XGTACX_site5404]	6.89
GAAATAAGGGTTATTTCACACATTGCATGTATTTTC [CACACA_site5752]	6.67
ATATATATTAATTTTGTGCACAAATGGAAATGTTTG [GTGCAC_site9971]	8.34
TTTTTTTTTTTTTTATGTACTAAAAAATGAAAAATA [XGTACX_site6812]	7.1
AAATACTTAACATTGGTGCATATTTGTAAAATTATT [GTGCAC_site9515]	10.7
TTTTGGCTTCTAATATTATACAAAATGGTAAGGAAA [TGCATGCA_negctrl_site169]	7.29
AGAATACAAAATTGCACACATATTGTGAAAATGTTA [CACACA_site4005]	6.97
ATGCAATAATAATATTGTACGCATATATTTTTTACT [XGTACX_site3384]	7.01
AAAAAAAAAAAAAAAACACACACATATATATAATAT [CACACA_site9038]	7.63
TTATAAAATATTTTTTGTACACATAATAGTAAGACT [XGTACX_site933]	7.13
AATACATGCTTATTTTAACACACAAATGGTAGTAAT [CACACA_site8154]	6.84
GATTATTTTATAAGTACACACATTTATCTATAATAA [CACACA_site7256]	7.33
GATTAATACACATTCTTCCGACATAATAAGAAAAAG [GTGCAC_negctrl_site7]	7.05
AACCATGTTAACAACGCATGTATATCTATGGGTTTA [TGCATGCA_site419]	6.72
CTTATATTTAGACACACACACAATAAAATGAAAAAA [CACACA_site1031]	7.07
CCATAATATTATAGACGTACGAATATATATAAAAGA [XGTACX_site7295]	7.2
CACCCACACCAACACACACACATATATAATATATAT [CACACA_site595]	7.44
TTTTTTAAATGTCATTGTACATAATTCAATATATAA [XGTACX_site5]	7

Sequence	gcPBM binding intensity (ln)
AGCTAATATATCTTATATTCATATAAAAAAATATAT [CACACA_negctrl_site1786]	6.89
TGACTTTTTTTATGTTGTACTTATTATAAAAAAAAT [XGTACX_site7736]	7.33
GTGTGATATAATTTTTTTAGAGCTTTATAATATTAT [CACACA_negctrl_site233]	7.15
TATGTTGATGATATTACACACCCAATGAGAAAAGGA [CACACA_site7060]	7.34
CAACCATTTGTAGGTAAACACACATTATTATTAATA [CACACA_site8842]	6.92
AAGTTACAGAATATCACACATAAATTATCTGTATAT [CACACA_site5116]	6.77
GTTAAGCAATATATATGTACTTATGGAATAGAAAAA [XGTACX_site3693]	7.3
TCAATTAATTATTTTTGTACACAAGAATTACTGAAT [XGTACX_site6401]	6.85
TTTGTCAAATAATATTGTACTAAAAAATTTTGCCTT [XGTACX_site7485]	7.01
TATTTGTAATATAACACACACAAAAAAAGACTCGGA [CACACA_site1681]	7.06
ATACACACAGCCTAAACATGCATATAGAAAAAAGAA [TGCATGCA_site1028]	7.4
TGTTTATACATCAGGTGTACGCAAAATAATTGTATG [XGTACX_site206]	7.67
TTTATTTACTATTAAAGTACTAAATCATATAATTAT [XGTACX_site2580]	6.83
TATACATATACATATACACACACACCCATAAATAAA [CACACA_site8372]	7.71
TTAACACATGCTTGGTCACACACGTATGCATATTTA [CACACA_site2127]	7.2
TTAGTTTATTGGTACTGTACTTTTTTTTTCTCCATT [XGTACX_site8618]	7.17
TATCATATATGAAGGTGTACGATTTATTATATAAAT [XGTACX_site7010]	7.04
ATTTTTGAACGGTACAGTACAGAATTTAATTAACCC [XGTACX_site47]	6.78
TTATTTAAAATTTTTATGCGTATATATATAGGAACA [CACACA_negctrl_site388]	7.55
CACAAAATAAATTAAACACACAACATCATAGATGTA [CACACA_site4619]	6.65
